From article PMC10530723, “The Conserved Chromatin Remodeler SMARCAD1 Interacts with TFIIIC and Architectural Proteins in Human and Mouse” (Genes, 2023) come the findings set out here.

These are yes or no findings as the source states them, for the method shown. Binding seen in cells or lysates may run through a third protein.

The experiment addresses T1, TFIIIC90 (endogenous, HeLa) (human (endogenous in HeLa)), Q9UKN8.
T1 chain: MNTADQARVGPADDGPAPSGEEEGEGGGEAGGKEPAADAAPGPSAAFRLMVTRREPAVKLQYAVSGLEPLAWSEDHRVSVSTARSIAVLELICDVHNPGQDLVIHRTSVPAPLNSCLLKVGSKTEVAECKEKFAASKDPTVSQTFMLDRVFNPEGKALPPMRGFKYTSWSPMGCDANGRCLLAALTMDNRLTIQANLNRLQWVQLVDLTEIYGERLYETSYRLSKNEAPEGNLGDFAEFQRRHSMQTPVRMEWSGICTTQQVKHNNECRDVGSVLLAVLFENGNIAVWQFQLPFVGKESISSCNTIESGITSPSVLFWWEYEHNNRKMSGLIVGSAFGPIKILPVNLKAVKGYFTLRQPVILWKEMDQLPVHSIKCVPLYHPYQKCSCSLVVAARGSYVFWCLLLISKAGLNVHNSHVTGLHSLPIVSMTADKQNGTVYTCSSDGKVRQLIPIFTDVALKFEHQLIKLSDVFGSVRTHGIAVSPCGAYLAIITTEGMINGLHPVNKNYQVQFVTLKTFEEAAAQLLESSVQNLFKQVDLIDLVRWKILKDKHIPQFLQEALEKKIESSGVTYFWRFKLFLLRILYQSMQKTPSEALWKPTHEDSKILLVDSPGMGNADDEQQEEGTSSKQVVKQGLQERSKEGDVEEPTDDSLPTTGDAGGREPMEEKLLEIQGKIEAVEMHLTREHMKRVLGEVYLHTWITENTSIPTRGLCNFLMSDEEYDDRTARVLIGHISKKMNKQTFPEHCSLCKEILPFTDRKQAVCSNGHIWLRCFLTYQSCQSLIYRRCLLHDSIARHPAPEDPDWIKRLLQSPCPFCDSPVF
The experiment can be described thus: co-IP; endogenous proteins from HeLa nuclear extract (150 ug protein, 3 ug antibody to SMARCAD1, TFIIIC63 or TFIIIC90, Protein G Dynabeads); benzonase and ethidium bromide present throughout; washes in 20 mM HEPES pH 7.6, 100 mM KCl, 0.05% Triton X-100, last wash with additional 50 mM NaCl; Western blot. The conditions noted are these: remark: other sources report otherwise.

B1: TFIIIC110 (endogenous, HeLa), Q8WUA4 1-911 (protein)
chain: MDTCGVGYVALGEAGPVGNMTVVDSPGQEVLNQLDVKTSSEMTSAEASVEMSLPTPLPGFEDSPDQRRLPPEQESLSRLEQPDLSSEMSKVSKPRASKPGRKRGGRTRKGPKRPQQPNPPSAPLVPGLLDQSNPLSTPMPKKRGRKSKAELLLLKLSKDLDRPESQSPKRPPEDFETPSGERPRRRAAQVALLYLQELAEELSTALPAPVSCPEGPKVSSPTKPKKIRQPAACPGGEEVDGAPRDEDFFLQVEAEDVEESEGPSESSSEPEPVVPRSTPRGSTSGKQKPHCRGMAPNGLPNHIMAPVWKCLHLTKDFREQKHSYWEFAEWIPLAWKWHLLSELEAAPYLPQEEKSPLFSVQREGLPEDGTLYRINRFSSITAHPERWDVSFFTGGPLWALDWCPVPEGAGASQYVALFSSPDMNETHPLSQLHSGPGLLQLWGLGTLQQESCPGNRAHFVYGIACDNGCIWDLKFCPSGAWELPGTPRKAPLLPRLGLLALACSDGKVLLFSLPHPEALLAQQPPDAVKPAIYKVQCVATLQVGSMQATDPSECGQCLSLAWMPTRPHQHLAAGYYNGMVVFWNLPTNSPLQRIRLSDGSLKLYPFQCFLAHDQAVRTLQWCKANSHFLVSAGSDRKIKFWDLRRPYEPINSIKRFLSTELAWLLPYNGVTVAQDNCYASYGLCGIHYIDAGYLGFKAYFTAPRKGTVWSLSGSDWLGTIAAGDISGELIAAILPDMALNPINVKRPVERRFPIYKADLIPYQDSPEGPDHSSASSGVPNPPKARTYTETVNHHYLLFQDTDLGSFHDLLRREPMLRMQEGEGHSQLCLDRLQLEAIHKVRFSPNLDSYGWLVSGGQSGLVRIHFVRGLASPLGHRMQLESRAHFNAMFQPSSPTRRPGFSPTSHRLLPTP
For B1, the binding entry is on record as “no binding”.
